Measurements reported in PubChem BioAssay AID686970 (National Center for Advancing Translational Sciences (NCATS), 2013).
About 6,000 (1.7%) of roughly 360,000 compounds were called active. Inconclusive means that the source gave no clear call. Such entries were picked first, then a sample of the others. The call rests on the fitted dose curve; in most records, active means well fitted cell-killing curve with a large enough effect; inconclusive means small, poorly fitted or top-dose-only effect, or effect the other way; inactive means flat fitted curve, though single readings scatter. Potencies of inconclusive entries are left out as doubtful fits.

assay: qHTS for induction of synthetic lethality in tumor cells producing 2HG: qHTS for the HT-1080-NT fibrosarcoma cell line; settings: HT-1080-NT fibrosarcoma viability, CellTiter-Glo ATP luminescence, 48 h; activity, negative = less viability: at 46.1 µM (top of the series) unless noted; further: nearly all actives have a fitted effect of over 55% in size
Text: Unbiased genomic sequencing for 22 glioma genomes found recurrent mutation of IDH1 on chromosome 2q33, a gene encoding the cytosolic isoform of IDH1 associated with the tricarboxylic acid cycle (TCA) that catalyzes the oxidative decarboxylation of isocitrate, yielding alpha-ketoglutarate and CO2 via NADP+ to NADPH conversion. Subsequent studies confirmed the recurrent IDH mutations in up to 70% of secondary gliomas and in 10% of AML cases. In addition, the somatic mutation of cancer-associated IDH1 is a point mutation resulting in various amino-acid substituents at Arginine132 (IDH1 R132), a key residue found in the enzyme's active site that when mutated, results in the loss-of-function in metabolizing isocitrate but confers a gain-of-function to produce the oncometabolite 2-hydroxyglutarate (2HG). This in effect defines IDH1 as an oncogene and provides an extraordinary opportunity to discover chemical probes against mutant IDH1 that may translate into much needed new therapies for glioma and AML patients.
This assay aims to perform a synthetic lethal screen for chemical probes specific for 2HG-producing tumor cells using matched paired cell lines (1) HT-1080-NT fibrosarcoma cell line that overproduces 2HG and (2) HT-1080-IDH1KD cell line which has IDH1 expression knocked-down. Desirable compounds are toxic to the NT fibrosarcoma cells but not to the IDH1KD cell line. The data in this AID corresponds to the results of the qHTS against the HT-1080-NT fibrosarcoma cell line.
[1] Dang L, Jin S, Su SM. IDH mutations in glioma and acute myeloid leukemia. Trends of Mol Med. 2010; 16(9): 387-97.
[2] Dang L et al. Cancer-associated IDH1 mutations produce 2-hydroxyglutarate. Nature. 2010; 465(7300):966.
NIH Molecular Libraries Probe Production Centers Network [MLPCN]
NIH Chemical Genomics Center [NCGC]
Assay Submitter (PI): Lenny Dang Ph.D., Agios Pharmaceuticals
Suspensions of trypsinized HT-1080-NT cells were dispensed into white, tissue culture-treated, solid 1536-well plates at 5uL/well (750 cells/well final concentration) in RPMI medium supplemented with 5% FBS. Plates were incubated at 37 degrees C for 2 hours, after which 23 nL of compounds or DMSO were delivered to each well using a pin tool. Plates were then incubated at 37 degrees C for an additional 48 hours. CellTiter-Glo viability reagent (Promega) was dispensed into wells (2.5uL/well) and incubated at room temperature for 10 minutes. The plates were measured on a PerkinElmer ViewLux plate reader for luminescent signal (clear filter, 1 sec exp). DMSO-treated control wells and media-only (no cells) control wells were used to normalize %Activity of identified toxic compounds; DMSO-treated wells corresponded to 0%Activity (100% viability), while media-only controls were used to normalize 100%Activity (0% viability).
Concentration-response curves were fitted to the signals arising from the resulting luminescence. The concentration-effect curves were then classified based on curve quality (r2), response magnitude and degree of measured activity, and compounds were subsequently categorized based on their curve class.
Potency means the concentration at half of the fitted maximal effect; tags describe the fitted curve by direction and shape.

| SMILES | activity, negative = less viability | Potency |
| --- | --- | --- |
| COc1ccccc1NS(=O)(=O)c1ccc(C)c(C(=O)NCC2(N(C)C)CCCCC2)c1 | inactive: -2.58% |  |
| COc1cccc(-c2cc3nc(-c4ccccc4)cc(N4CCCC(O)C4)n3n2)c1 (configuration not stated) |  | inconclusive [cytotoxic, single point] |
| Cc1ccc(/C=N/NC(=O)Cn2nc(C)c([N+](=O)[O-])c2C)o1 | inactive: -6.4% |  |
| FC(F)Oc1ccc(NC(=S)NCc2ccccc2)cc1Cl |  | inconclusive [cytotoxic, single point] |
| CN(C(=O)COC(=O)c1ccccc1C(=O)N1CCN(c2ccccc2)CC1)c1ccccc1 | inconclusive: 4.26% |  |
| COc1ccc(N2CC(C(=O)O)CC2=O)cc1 (configuration not stated) | inactive: 6.33% |  |
| Cc1ccc(C(=O)CSc2nc(-c3ccccc3)ccc2C#N)cc1 | inactive: 21.2% |  |
| Nc1nc(SCC(=O)Nc2cc(Cl)ccc2Cl)n[nH]1 | inactive: -0.163% |  |
| COc1ccc(NC(=O)c2nnn(CC(=O)Nc3ccc4c(c3)OCO4)c2N)cc1OC |  | inconclusive [cytotoxic, single point] |
| CCOC(=O)CSc1nc2sc3c(c2c(=O)n1-c1ccccc1)CCN(C(C)C)C3 | inconclusive: -4.04% [cytotoxic] |  |
| CCCS(=O)(=O)NC(=O)C1(C)CCCN(C(=O)CSc2ccccc2)C1 (configuration not stated) |  | inconclusive [rising, single point] |
| CCNCCNC(=O)c1c(O)c2cccc3c2n(c1=O)CCC3 | inconclusive: -30% [cytotoxic] |  |
| c1ccc(-c2c(-c3ccccc3)n(Cc3ccco3)c3ncnc(NCCCn4ccnc4)c23)cc1 |  | active: 18.4 µM |
| CCOC(=O)N1CCC(NS(=O)(=O)c2cc3c(cc2Cl)NC(=O)CO3)CC1 | inactive: -9.73% |  |
| CCOC(=O)c1[nH]c(C)c(C(=O)c2ccc(C)cc2)c1C |  | active: 1.78 µM |
| Cc1ccc(-n2c(N)c(C#N)c(-c3ccc(Cl)cc3)c(C#N)c2=O)cc1 | inactive: -14% |  |
| O=C(c1ccc(S(=O)(=O)N2CCCC2)cc1)N1CCCc2ccccc21 | inactive: -0.665% |  |
| COC(=O)c1cccn(CC(=O)c2ccc(Cl)cc2Cl)c1=O | inactive: 7.73% |  |
| O=C(NCc1nnc2c(C(F)(F)F)cc(Cl)cn12)c1ccc(Br)o1 | inactive: 9.34% |  |
| CC(=O)C(=Cc1ccc(-c2ccccc2)cc1)C(=O)c1ccccc1 |  | active: 14.6 µM |
| COc1cc(OC)c(C(=O)Oc2ccc3c(c2)OCO3)cc1OC | inactive: 2.31% |  |
| O=C(NC(c1ccc2ccccc2n1)c1cccs1)C1CCN(Cc2cccc(C(F)(F)F)c2)CC1 (configuration not stated) |  | inconclusive [cytotoxic, single point] |
| CCOc1cc(CNCc2ccncc2)cc(Br)c1OCc1ccc(F)cc1 |  | inconclusive [cytotoxic, single point] |
| CCOc1ccc(OCCn2c(=S)[nH]c3ccccc32)cc1 | inactive: 3.09% |  |
| O=C(c1ccccc1)N1CCN(c2nc3ccc([N+](=O)[O-])cc3s2)CC1 | inactive: -4.96% |  |
| Cn1cc([N+](=O)[O-])c(C(=O)Nc2ccc(Br)cn2)n1 |  | active: 11.2 µM |

| SMILES | activity, negative = less viability | Potency |
| --- | --- | --- |
| COc1ccccc1-c1csc(C(C)(NC(C)=O)c2ccccc2)n1 (configuration not stated) |  | inconclusive [rising, full curve] |
| COc1ccc2cc(CN(CC3CCCO3)C(=O)Nc3ccccc3OC)c(=O)[nH]c2c1 (configuration not stated) |  | active: 2.59 µM |
| CN1CCn2cnc(C(=O)N[C@@H](Cc3ccccc3)C(=O)OC(C)(C)C)c2C1=O | inactive: 10.9% |  |
| Cc1cc(C)n(-c2nc(SCCN(C)C)c3c4c(sc3n2)COC(C)(C)C4)n1 |  | active: 17.8 µM |
| CCOC(=O)C1(CC2CCCCO2)CCN(C(=O)Nc2ccc3c(c2)OCO3)CC1 (configuration not stated) | inconclusive: 18.8% |  |
| Cc1ccc(C2CCN(C(=S)NC3CCCCC3)C2)cc1 (configuration not stated) |  | inconclusive [cytotoxic, single point] |
| Cc1cc(NC(=O)c2ccccc2Cl)ccc1NC(=O)c1ccccc1Cl | inactive: -2.06% |  |
| CSCCC(NS(=O)(=O)c1ccc2c(c1)oc(=O)n2C)C(=O)NCc1cccs1 (configuration not stated) |  | inconclusive [cytotoxic, single point] |
| CCc1ccc(C(=O)C(C)OC(=O)c2nc3nc(C)cc(C)n3n2)cc1 (configuration not stated) | inactive: 0.703% |  |
| Cc1noc2ncnc(Sc3ccccc3Cl)c12 |  | inconclusive [cytotoxic, single point] |
| CCCc1nc2ccc(C)cn2c1Cc1ccc(C)cc1 |  | inconclusive [cytotoxic, single point] |
| Cc1ccc(N2CC(O)=C(c3nc4ccccc4c(=O)[nH]3)C2=N)cc1C |  | inconclusive [rising, partial curve] |
| Cc1cc(C)cc(C(O)c2ncc(-c3ccc(C(F)(F)F)cc3)[nH]2)c1 (configuration not stated) |  | inconclusive [cytotoxic, single point] |
| Cc1cccc(NC(=O)CC2C(=O)NCCN2C(=S)Nc2ccccc2)c1 (configuration not stated) | inactive: -1.47% |  |
| C=CCn1c(=S)[nH]c2cc(C(=O)Nc3ccc(F)cc3)ccc2c1=O |  | inconclusive [cytotoxic, full curve] |
| CC(=O)c1ccc(-c2cccc(-c3nc4ccccn4c3NC3CCCCC3)c2)cc1 |  | inconclusive [cytotoxic, single point] |
| CC(=O)N1c2ccccc2C2CCCC[C@H]21 (some centres not stated) | inactive: 4.93% |  |
| CCOC(=O)/C=C/S(=O)(=O)c1ccc(NC(C)=O)cc1 |  | inconclusive [cytotoxic, single point] |
| CCOc1ccccc1NC(=O)NCc1ccco1 | inactive: 0.85% |  |
| CC(=NNc1nc2ccccc2s1)c1ccncn1 |  | inconclusive [cytotoxic, partial curve] |
| O=C(N/N=C/c1ccc([N+](=O)[O-])s1)c1ccccc1Br |  | inconclusive [cytotoxic, single point] |
| CC1Cc2nc(SCC(=O)Nc3ccc4c(c3)OCCO4)n(C)c(=O)c2S1 (configuration not stated) | inactive: 2.08% |  |
| COc1ccc(NC(=O)N2CCc3ccccc3C2)c(OC)c1 | inconclusive: 34.9% |  |
| Cn1nc(C(C)(C)C)cc1C(=O)N1CCCCC1c1cc(C(=O)Nc2cccc3c2CCCC3)no1 (configuration not stated) |  | inconclusive [cytotoxic, single point] |
| CCCC/C=C/c1cccc2nncn12 |  | inconclusive [rising, single point] |
| COc1ccc(Cc2c(-c3ccc(Cl)cc3)nc3c(C)cc(Br)cn23)c(C)c1 |  | inconclusive [cytotoxic, single point] |

| SMILES | activity, negative = less viability | Potency |
| --- | --- | --- |
| N#CC(C#N)=C1SC(=Nc2ccccc2)C(=Nc2ccccc2)N1c1ccccc1 |  | inconclusive [cytotoxic, single point] |
| CC(C)CN1C(=O)C(=O)N(CC(=O)N(C)CC(=O)Nc2ccc(F)cc2)C1=O | inactive: 5.53% |  |
| COc1ccccc1Nc1nc(-c2ccc3c(c2)NC(=O)CO3)cs1 |  | inconclusive [cytotoxic, single point] |
| NC(=O)c1cc[n+](CC(=O)NC(=O)Nc2ccccc2)cc1 | inactive: 5.95% |  |
| Cc1ccc2nc(SCc3ccc([N+](=O)[O-])cc3)nc(C)c2c1 | inactive: 13.2% |  |
| CCn1cc(C(=O)O)c(=O)c2cc(F)c(N3CCN(C(=S)NC(=O)c4cccc(F)c4)CC3)cc21 | inactive: 21.2% |  |
| CCC(=O)N1Cc2cc(C(=O)Nc3nccs3)nc(-c3cccc(-c4ccccc4OC)c3)c2[C@H]1CCO |  | inconclusive [cytotoxic, single point] |
| O=C(NC(c1ccccc1)c1c(O)ccc2ccccc12)c1ccccc1Cl (configuration not stated) |  | active: 17.8 µM |
| CCn1c(=O)cc(SCC(=O)NCCCN2CCN(c3ccccc3F)CC2)c2ccccc21 |  | inconclusive [cytotoxic, single point] |
| CC(C)CC(N)c1csc(NC(=O)NCCc2ccccc2)n1 (configuration not stated) |  | inconclusive [cytotoxic, single point] |
| Cc1nc(Nc2ccc(F)cc2)nc(Nc2ccc(F)cc2)c1[N+](=O)[O-] |  | inconclusive [cytotoxic, single point] |
| CCOC(=O)C1(Cc2ccc(OC)cc2)CCN(C(=O)c2cncs2)CC1 | inactive: -6.02% |  |
| CCN(CC)CCC(=O)N1C/C(=C/c2ccccc2)C(=O)/C(=C\c2ccccc2)C1 |  | inconclusive [cytotoxic, partial curve, poor fit] |
| COCCCOc1ccnc(CS(=O)c2nc3ccccc3[nH]2)c1C (configuration not stated) | inactive: -8.42% |  |
| O=C(CSc1nc(-c2ccccc2)cc(=O)[nH]1)Nc1ccc(F)c(F)c1 | inactive: -4.13% |  |
| O=C(CSCc1nc2c(nnn2Cc2ccc(F)cc2)c(=O)[nH]1)Nc1c(Cl)cc(Cl)cc1Cl |  | inconclusive [cytotoxic, single point] |
| O=C(Nc1cccc(NC(=O)c2cccc(F)c2)n1)c1cccc(F)c1 | inactive: -17.9% |  |
| COc1ccc(-n2c(-c3cc(-c4ccccc4)sc3N)n[nH]c2=S)cc1 |  | active: 16.4 µM |
| S=C(NCCSCc1ccc(Cl)cc1Cl)Nc1ccccc1 |  | inconclusive [cytotoxic, single point] |
| O=S(=O)(c1ccccc1)c1cnc(-c2cccnc2)nc1-c1ccc(Cl)cc1Cl | inactive: -15.4% |  |
| Cc1cc(C)c2c(=O)n(CC(=O)Nc3cccc(F)c3)sc2n1 |  | inconclusive [cytotoxic, single point] |
| CCOc1ccc(NC(=O)Cc2cccc3ccccc23)c([N+](=O)[O-])c1 |  | inconclusive [rising, single point] |
| CN(C)c1ccc(C(=O)OCC(=O)NCC2CCCO2)cc1 (configuration not stated) | inactive: -4.55% |  |
| Cc1cc(-c2ccccc2)nc(N/N=C/c2ccco2)n1 |  | inconclusive [cytotoxic, single point] |
| COc1ccc(OC)c(Nc2nc(-c3sc(N)nc3C)cs2)c1 |  | inconclusive [cytotoxic, single point] |
